# Reference: the supplement of paper PMC12217912
# The other results are listed elsewhere or left out. Sequences were assembled here from the parent chain. Values near 0.05 are background.
# B1: TEV protease; numbered along this chain (parent)
# chain: MGESLFKGPRDYNPISSSICHLTNESDGHTTSLYGIGFGPFIITNKHLFRRNNGTLVVQSLHGVFKVKDTTTLQQHLVDGRDMIIIRMPKDFPPFPQKLKFREPQREERICLVTTNFQTKSMSSMVSDTSCTFPSGDGIFWKHWIQTKDGQCGSPLVSTRDGFIVGIHSASNFTNTNNYFTSVPKNFMELLTNQEAQQWVSGWRLNADSVLWGGHKVFMVKPEEPFQPVKEATQL
# Variants of: B1
# Assay: raw area under fraction-flipped curve 0-4 h after induction (AUC4h, not background-subtracted), DNA-recorder readout of cleavage of the substrate (dimensionless); higher = more cleavage of the substrate by the protease variant
# Conditions: temperature: 34 °C; time window: 0-4 h after rhamnose induction
# Procedure: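 In vivo DNA recorder in E. coli TOP10(DE3) ΔrhaA at 34 °C. Each TEVp single-site mutant (parent TEVp 0) is paired with a single-site variant of the 7-mer TEVs (canonical ENLYFQ|S). The substrate sits between flexible linkers in a Bxb1-sfGFP-TEVs-SsrA fusion, so cleavage stabilises Bxb1 and speeds flipping of a recombination array, read by NGS. The value is the raw area under the fraction-flipped curve over 0-4 h after rhamnose induction (AUC4h), with ≥20 reads per time point. It is not background-subtracted; inactive controls average about 0.047.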
# 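Note: Bxb1 expression induced with 0.2% (w/v) L-rhamnose at OD600 near 0.5, cultures sampled hourly, flipped fraction per protease–substrate barcode pair counted by paired-end Illumina sequencing.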
Variant,area with substrate ENLAFQS,area with substrate ENLCFQS,area with substrate ENLDFQS,area with substrate ENLEFQS,area with substrate ENLFFQS,area with substrate ENLKFQS,area with substrate ENLLFQS,area with substrate ENLMFQS,area with substrate ENLNFQS,area with substrate ENLPFQS,area with substrate ENLQFQS,area with substrate ENLRFQS,area with substrate ENLSFQS,area with substrate ENLHFQS,area with substrate ENLVFQS,area with substrate ENLGFQS,area with substrate ENLWFQS,area with substrate ENLTFQS,area with substrate ENLIFQS
Q234Y,0.0607,0.0564,0.0703,0.0577,0.0791,0.0713,0.0343,0.0783,0.0619,0.0574,0.0642,0.0834,0.0623,,,,,,
L235K,0.0735,0.0728,0.0556,0.0532,0.0938,,,,,0.0471,0.126,,0.0587,0.0795,0.112,,,,
G2C,,0.0837,,,,,,,,,,,,,,,,,
G2L,,0.0796,0.0587,,0.0868,0.0647,,,0.0707,,,0.0958,0.0732,,,,,,
E3T,,0.0949,,,,,,,,,,,,0.0778,0.0952,0.0546,0.0684,,
S4Q,,0.071,,0.0586,,0.0909,,0.0793,,0.0593,0.0736,,0.0541,0.0668,,,,0.0595,
L5N,,0.0754,0.0538,0.0521,0.084,0.0873,0.0673,,0.0593,,0.0869,0.0991,,,,,,,0.106
F6G,,0.0646,0.059,0.0538,,0.0786,0.0653,,,0.0409,,,,0.0639,,,0.0533,,
S17I,,0.0664,0.0724,,0.105,0.0753,,,,0.0567,,,0.0547,0.067,,,,,0.0739
E25F,,0.0716,0.0699,0.0567,0.0867,0.0785,0.0781,,,0.0333,,0.0762,0.0703,0.0788,,,0.0851,,
E25H,,0.0739,0.0612,0.065,0.0736,0.0766,0.0631,,0.0558,0.064,0.0747,,0.0634,0.0584,,0.0627,0.0603,,
E25M,,0.0788,0.0556,0.0614,0.0873,0.0802,0.0783,0.0684,0.0607,0.0797,,0.0616,0.0749,0.0986,0.0807,0.0634,0.0701,,0.122
D27M,,0.0692,0.0552,0.0698,0.0611,0.0801,0.0737,,0.0572,0.0529,0.0646,0.0679,0.0584,0.0599,,0.0574,0.0655,,
T30E,,0.0736,,0.0595,0.0849,0.062,,0.068,0.0703,0.0577,0.0752,0.0649,,0.0696,0.0623,,,,0.0768
T30I,,0.0607,0.0494,0.0726,0.0847,0.0784,,,0.0627,0.0559,0.0677,0.0845,0.0472,,,0.0726,0.0626,0.0577,0.0712
Y34R,,0.0589,0.0797,0.0729,0.094,0.0735,,,,,0.0671,0.0631,0.0532,,,0.0649,0.074,,

Variant,area with substrate ENLAFQS,area with substrate ENLCFQS,area with substrate ENLDFQS,area with substrate ENLEFQS,area with substrate ENLFFQS,area with substrate ENLKFQS,area with substrate ENLLFQS,area with substrate ENLMFQS,area with substrate ENLNFQS,area with substrate ENLPFQS,area with substrate ENLQFQS,area with substrate ENLRFQS,area with substrate ENLSFQS,area with substrate ENLHFQS,area with substrate ENLVFQS,area with substrate ENLGFQS,area with substrate ENLWFQS,area with substrate ENLTFQS,area with substrate ENLIFQS
I36K,,0.0411,,,0.0432,0.0284,,0.0734,0.0381,0.0318,,,0.0386,0.0478,0.0385,0.0509,,,
H47Q,,0.0668,0.0539,0.053,0.0649,0.0694,,0.0548,0.0643,0.0801,0.0622,0.058,,0.0643,0.0738,0.0875,,,
R50M,,0.066,0.045,0.0598,0.0203,0.0936,,0.068,0.0562,,,,,,0.0727,,0.0676,,
R51W,,0.0951,0.06,0.0698,0.0973,0.0793,,,0.0664,0.0476,,,0.0809,0.0416,,0.0659,,,
N52A,,0.0651,0.0657,0.0473,0.0655,0.0651,0.05,,0.05,,0.0652,0.0671,0.0725,0.068,,,0.0705,,
N52E,,0.063,0.0521,0.0644,0.0632,0.0845,,,0.0591,0.0662,,0.0544,0.0619,0.0505,0.0828,0.0607,0.0668,,
N53Y,,0.0931,0.0589,,0.0706,0.067,0.059,,0.0609,0.0407,,0.0604,0.0525,0.0557,0.0735,,0.0555,,0.0615
Q59P,,0.0448,0.0332,,0.0409,0.0387,,,0.042,,,0.0427,0.109,0.0468,0.0511,0.0398,,,
L61R,,0.0752,0.053,0.0737,0.105,0.0952,0.0864,,0.0697,0.11,0.0927,0.07,0.0601,0.0751,0.0474,0.0742,,,0.0821
G63S,,0.0699,0.0618,0.0582,0.0889,0.0701,,,0.0672,,,0.0813,0.0579,0.0648,,0.0683,0.0696,,0.0715
F65H,,0.0711,0.058,,0.0776,0.0884,,,0.049,,,0.075,0.0704,,,,0.0387,,
V67I,,0.0983,,,,0.0761,,,0.0629,,,0.062,,0.096,,,,,0.0982
K68D,,0.108,0.0637,0.0704,0.0998,0.0638,0.0974,,0.0602,0.054,0.104,,0.0459,0.0823,,,,,0.0908
K68G,,0.081,,,0.0702,,0.058,0.0479,,0.0477,,0.0713,,0.0753,0.0964,,,,0.0886
K68P,,0.0736,0.0536,0.0585,0.0875,0.0739,0.0786,0.053,0.0688,,0.0467,,0.0561,0.0716,,,0.0696,,0.0474
T70P,,0.0831,0.074,0.084,0.0707,0.067,0.0524,0.0621,0.0554,0.0697,0.0641,,0.0577,,0.0623,,0.0427,,0.0491
